The assay can be described thus: qHTS Assay for Lipid Storage Modulators (AID 1519). The following applies: Drosophila S3 cells, BODIPY lipid droplet/cell ratio, laser cytometry, cells loaded with oleic acid. In a few lines: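 Cells seeded at 5,000 per well were treated with compounds over a concentration series and loaded with oleic acid (400 uM, as added). Lipid droplet fluorescence (488 nm excitation, 500-530 nm channel) was read by laser-scanning cytometry and normalized to 20 uM Triacsin C.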
A general note: In qHTS, concentration-response curves come from the screen itself.

Setting [1] is: measured here: cell count channel max response.
Where [2] appears, read: measured here: cell number channel AC50.
Where [3] appears, read: measured here: lipid (BODIPY) channel AC50.
[4] abbreviates: measured here: lipid channel max response.

Structures are written as SMILES. Values joined by “and” are separate entries in the source; they are usually repeats but may differ in a detail not shown here. Equal entries are not always repeated. Some of the results follow. Further columns of the screen follow, without active or inactive calls. Most of these compounds were active or inconclusive in the main read-out, so they are no random draw. Words in brackets tell the shape of the fitted curve; partial curves, single points and poor fits give uncertain potencies.
Tags tell the direction and shape of the fitted curve.

With `C[C@]12[C@H](O)CC3C(CC[C@@H]4C[C@@H](O)CC[C@]34C)[C@@]1(O)CC[C@@H]2C1=CC(=O)OC1` (stereo partly drawn), the max response amounted to 12.8% under setting [1] and 19% under setting [4]. For the same compound, the concentration at half-maximal activity (AC50) (commonly the concentration giving half of the maximal activity seen) runs as follows: under setting [2], 3.55 µM [rising, full curve, poor fit]; under setting [3], 0.251 µM [rising, full curve, poor fit].

Take `CNC(=O)Oc1ccc2c(c1)[C@@]1(C)CCN(C)[C@@H]1N2C`: the max response reads like this: under setting [1], 34.1%; under setting [4], 46.4%. Moreover, the AC50 by setting is: under setting [2], 31.6 µM [rising, single point]; under setting [3], 31.6 µM [rising, single point].

Turning to `CCCN1CCC[C@H](c2cccc(O)c2)C1`, the max response by setting is: under setting [1], -35.9%; under setting [4], -49%. Further, the AC50 is, setting by setting: under setting [2], 7.08 µM [falling, full curve, poor fit]; under setting [3], 35.5 µM [falling, partial curve, poor fit].

In the case of `Cn1ccnc1`, the max response was determined as 59.5% under setting [1] and 62.4% under setting [4]. Besides, the concentration at half-maximal activity (AC50) is, setting by setting: under setting [2], 3.55 µM [falling, full curve, poor fit]; under setting [3], 3.55 µM [falling, full curve, poor fit].

As for `CC(=O)NCCc1c[nH]c2ccccc12`, the max response was 53.3% and -31.7% under setting [1]; 60.9% and -32.2% under setting [4]. The AC50 by setting is: under setting [2], 22.4 µM [rising, partial curve, poor fit] and 7.08 µM [falling, full curve, poor fit]; under setting [3], 17.8 µM [rising, partial curve, poor fit] and 6.31 µM [falling, full curve, poor fit].

On to `COc1cc2c(cc1OC)[C@@H]1C(=O)c3ccc(OC)c(CC=C(C)C)c3OC1CO2` (stereo partly drawn), for which the max response was -30.1% under setting [1] and -84.7% under setting [4]. Besides, the AC50 is, setting by setting: under setting [2], 11.2 µM [falling, partial curve]; under setting [3], 15.8 µM [falling, partial curve].

As for `CC(=O)N1CCN(c2ccc(OC[C@@H]3CO[C@@](Cn4ccnc4)(c4ccc(Cl)cc4Cl)O3)cc2)CC1`, the max response was -35.5% under setting [1] and -39.6% under setting [4]. Further, the half-maximal activity concentration (AC50) under setting [2] is 7.94 µM [falling, single point] and the half-maximal activity concentration (AC50) under setting [3] was 15.8 µM [falling, single point].

Regarding `Cn1cc(C(=O)C(=O)N[C@H]2CN3CCC2CC3)c2ccccc21`, the max response runs as follows: under setting [1], 30.2%; under setting [4], 36.1%. In addition, the AC50 runs as follows: under setting [2], 12.6 µM [rising, full curve, poor fit]; under setting [3], 14.1 µM [rising, full curve, poor fit].

Turning to `CN1CCc2cc3c(cc2C1C1OC(=O)c2c1ccc1c2OCO1)OCO3` (stereo not drawn), the max response was determined as 66.3% under setting [1] and 85% under setting [4]. In addition, the AC50 reads like this: under setting [2], 12.6 µM [rising, partial curve]; under setting [3], 14.1 µM [rising, partial curve].

On to `COc1cc2c(cc1O)C[C@H]1c3c(cc(OC)c(O)c3-2)CCN1C`, for which the max response was found to be 76.5% under setting [1] and 103% under setting [4]. Besides, the AC50 reads like this: under setting [2], 28.2 µM [rising, partial curve, poor fit]; under setting [3], 31.6 µM [rising, partial curve].

Consider `O=C(O)C1=CCCN(CCOC(c2ccc(C(F)(F)F)cc2)c2ccc(C(F)(F)F)cc2)C1`, for which the max response by setting is: under setting [1], 41.6%; under setting [4], 44.6%. Moreover, the half-maximal activity concentration (AC50) is 35.5 µM [rising, partial curve, poor fit] under setting [2] and 31.6 µM [rising, single point] under setting [3].

Consider `CCN(CC)c1ncnc2c1ncn2[C@@H]1O[C@H](COP(=O)(O)OP(=O)(O)C(Br)(Br)P(=O)(O)O)[C@@H](O)[C@H]1O`, for which the max response runs as follows: under setting [1], 37.1%; under setting [4], 36.8%. Besides, the half-maximal activity concentration (AC50) is 4.47 µM [falling, partial curve, poor fit] under setting [2] and 3.55 µM [falling, full curve, poor fit] under setting [3].

Take `CC1(C)S[C@H]2[C@@H](N)C(=O)N2[C@H]1C(=O)O`: the max response under setting [1] turned out to be 46% and the max response under setting [4] was determined as 58.5%. Further, the half-maximal activity concentration (AC50) is, setting by setting: under setting [2], 39.8 µM [rising, single point]; under setting [3], 39.8 µM [rising, single point].

On to `NN=C(N)N`, for which the max response under setting [1] is 33.7% and 8.65%; the max response under setting [4] was 37% and 9.61%. Moreover, the AC50 reads like this: under setting [2], 4.47 µM [falling, full curve, poor fit]; under setting [3], 4.47 µM [falling, full curve, poor fit].

Turning to `c1ccc(C2CC2)c(OCC2=NCCN2)c1`, the max response is, setting by setting: under setting [1], 51.7%; under setting [4], 50%. For the same compound, the AC50 by setting is: under setting [2], 3.16 µM [falling, partial curve, poor fit]; under setting [3], 3.16 µM [falling, partial curve, poor fit].

For the compound `CN(C)C(=O)Oc1ccc[n+](C)c1`, the max response is 37.3% and 56.2% under setting [1]; 62.2% and 56.5% under setting [4]. Besides, the AC50 runs as follows: under setting [2], 28.2 µM [rising, single point]; under setting [3], 39.8 µM [rising, single point].

Regarding `C[C@@H]1O[C@H](O[C@@H]2C[C@@H](O)[C@]3(CO)[C@H]4[C@H](O)C[C@]5(C)[C@@H](C6=CC(=O)OC6)CC[C@@]5(O)[C@@H]4CC[C@]3(O)C2)[C@@H](O)[C@H](O)[C@H]1O`, the max response came to 3.46% under setting [1] and 7.78% under setting [4]. The AC50 is, setting by setting: under setting [2], 12.6 µM [rising, partial curve, poor fit]; under setting [3], 12.6 µM [rising, partial curve, poor fit].

The values above are taken from PubChem BioAssay (NCATS).
